B1: 4-1BB(11D5)/FAP(4B9) 2+1 (bispecific antibody, human IgG1, kappa)
heavy 1: QVQLVQSGAEVKKPGSSVKVSCKASGGTFSSYAISWVRQAPGQGLEWMGGIIPIFGTANYAQKFQGRVTITADKSTSTAYMELSSLRSEDTAVYYCARSTLIYGYFDYWGQGTTVTVSSASTKGPSVFPLAPSSKSTSGGTAALGCLVKDYFPEPVTVSWNSGALTSGVHTFPAVLQSSGLYSLSSVVTVPSSSLGTQTYICNVNHKPSNTKVDKKV[human IgG1 Fc with changes left out]GGGGSGGGGSGGGGSGGGGSEVQLLESGGGLVQPGGSLRLSCAASGFTFSSYAMSWVRQAPGKGLEWVSAIIGSGASTYYADSVKGRFTISRDNSKNTLYLQMNSLRAEDTAVYYCAKGWFGGFNYWGQGTLVTVSS
heavy 2: QVQLVQSGAEVKKPGSSVKVSCKASGGTFSSYAISWVRQAPGQGLEWMGGIIPIFGTANYAQKFQGRVTITADKSTSTAYMELSSLRSEDTAVYYCARSTLIYGYFDYWGQGTTVTVSSASTKGPSVFPLAPSSKSTSGGTAALGCLVKDYFPEPVTVSWNSGALTSGVHTFPAVLQSSGLYSLSSVVTVPSSSLGTQTYICNVNHKPSNTKVDKKVEPKSCDKTHTCPPCPAPEAAGGPSVFLFPPKPKDTLMISRTPEVTCVVVDVSHEDPEVKFNWYVDGVEVHNAKTKPREEQYNSTYRVVSVLTVLHQDWLNGKEYKCKVSNKALGAPIEKTISKAKGQPREPQVCTLPPSRDELTKNQVSLSCAVKGFYPSDIAVEWESNGQPENNYKTTPPVLDSDGSFFLVSKLTVDKSRWQQGNVFSCSVMHEALHNHYTQKSLSLSPGGGGGSGGGGSGGGGSGGGGSEIVLTQSPGTLSLSPGERATLSCRASQSVTSSYLAWYQQKPGQAPRLLINVGSRRATGIPDRFSGSGSGTDFTLTISRLEPEDFAVYYCQQGIMLPPTFGQGTKVEIK
light: [about 100 residues left out][about 120 residues left out]
B2: 4-1BB(11D5)/FAP(4B9) 4+1 (bispecific antibody, human IgG1, kappa)
heavy 1: QVQLVQSGAEVKKPGSSVKVSCKASGGTFSSYAISWVRQAPGQGLEWMGGIIPIFGTANYAQKFQGRVTITADKSTSTAYMELSSLRSEDTAVYYCARSTLIYGYFDYWGQGTTVTVSSASTKGPSVFPLAPSSKSTSGGTAALGCLVKDYFPEPVTVSWNSGALTSGVHTFPAVLQSSGLYSLSSVVTVPSSSLGTQTYICNVNHKPSNTKVDKKVEPKSCDGGGGSGGGGSQVQLVQSGAEVKKPGSSVKVSCKASGGTFSSYAISWVRQAPGQGLEWMGGIIPIFGTANYAQKFQGRVTITADKSTSTAYMELSSLRSEDTAVYYCARSTLIYGYFDYWGQGTTVTVSSASTKGPSVFPLAPSSKSTSGGTAALGCLVKDYFPEPVTVSWNSGALTSGVHTFPAVLQSSGLYSLSSVVTVPSSSLGTQTYICNVNHKPSNTKVDKKV[human IgG1 Fc with changes left out]GGGGSGGGGSGGGGSGGGGSEIVLTQSPGTLSLSPGERATLSCRASQSVTSSYLAWYQQKPGQAPRLLINVGSRRATGIPDRFSGSGSGTDFTLTISRLEPEDFAVYYCQQGIMLPPTFGQGTKVEIK
heavy 2: QVQLVQSGAEVKKPGSSVKVSCKASGGTFSSYAISWVRQAPGQGLEWMGGIIPIFGTANYAQKFQGRVTITADKSTSTAYMELSSLRSEDTAVYYCARSTLIYGYFDYWGQGTTVTVSSASTKGPSVFPLAPSSKSTSGGTAALGCLVKDYFPEPVTVSWNSGALTSGVHTFPAVLQSSGLYSLSSVVTVPSSSLGTQTYICNVNHKPSNTKVDKKVEPKSCDGGGGSGGGGSQVQLVQSGAEVKKPGSSVKVSCKASGGTFSSYAISWVRQAPGQGLEWMGGIIPIFGTANYAQKFQGRVTITADKSTSTAYMELSSLRSEDTAVYYCARSTLIYGYFDYWGQGTTVTVSSASTKGPSVFPLAPSSKSTSGGTAALGCLVKDYFPEPVTVSWNSGALTSGVHTFPAVLQSSGLYSLSSVVTVPSSSLGTQTYICNVNHKPSNTKVDKKVEPKSCDKTHTCPPCPAPEAAGGPSVFLFPPKPKDTLMISRTPEVTCVVVDVSHEDPEVKFNWYVDGVEVHNAKTKPREEQYNSTYRVVSVLTVLHQDWLNGKEYKCKVSNKALGAPIEKTISKAKGQPREPQVCTLPPSRDELTKNQVSLSCAVKGFYPSDIAVEWESNGQPENNYKTTPPVLDSDGSFFLVSKLTVDKSRWQQGNVFSCSVMHEALHNHYTQKSLSLSPGGGGGSGGGGSGGGGSGGGGSEVQLLESGGGLVQPGGSLRLSCAASGFTFSSYAMSWVRQAPGKGLEWVSAIIGSGASTYYADSVKGRFTISRDNSKNTLYLQMNSLRAEDTAVYYCAKGWFGGFNYWGQGTLVTVSS
light: [about 100 residues left out][about 120 residues left out]

Target: human 4-1BB on cells (human, UniProt Q07011 24-255)
Test: cell-based or functional assay

Row | Binder | EC50 of NFκB/luciferase activation, 4-1BB reporter HeLa with NIH/3T3-huFAP clone 19 | EC50 of NFκB/luciferase activation, 4-1BB reporter HeLa with WM-266-4
1 | B1 | 0.3 nM | 0.4 nM
2 | B2 | 0.06 nM | 0.1 nM

Source: patent publication US20220073646A1 (Hoffmann-La Roche, published 2022)
